The supplement of paper PMC3334620
Over roughly 33,000 sequences, “E-score (-0.5 to 0.5)” has its median near -0.056; the highest 2% begin near 0.38. The list shows a part of the results.

molecular target: Stb4 (UniProt P50104); test: PBM E-score (8-mer binding enrichment) (E-score (-0.5 to 0.5)); higher = stronger / more preferred TF binding; most listed sequences are background and not binding sites; conditions: protein concentration: 200 nM; construct: GST-DNA-binding domain
Summary of the method: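 Masliner-normalised scans of fluorescent anti-GST signal were the basis for scoring. That signal came from GST-tagged yeast transcription factors applied at about 100-200 nM to double-stranded universal all-10-mer Agilent arrays on fresh or once-stripped slides. Each ungapped eight-base word, pooled with its reverse complement, received an E-score from the Universal PBM Analysis Suite.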

Sequence | PBM E-score
TAAATCAA | -0.0636
GATCAGCA | -0.163
ATTCGTTC | 0.0399
GAAAACTC | 0.0464
ATCTGAGC | 0.0161
AGAAGGAC | -0.236
CTGAGATC | -0.0537
CAGTCTTA | -0.142
GGCCCGCC | 0.145
GTTTAGAA | -0.0425
GTTCATTA | 0.0516
AACTAAGC | -0.0964
ACCAGGTG | -0.0942
GAGACCCA | 0.00023
GAAAATAA | -0.0829
CATTGCTC | 0.115
TACCTCTA | -0.18
CTCCGAGA | 0.409
CAGGGAGA | -0.266
ACGACGGA | 0.22
AAGTTGGG | -0.258
AACTCTGC | -0.141
GGAAACTA | 0.191
ATTTCGCG | 0.0954
ATTTCAAC | -0.034

Sequence | PBM E-score
CGAGGCAG | 0.174
TCATGCGA | -0.129
CGTGGTCC | -0.0254
CCTATGAC | -0.189
GGAGTTAA | 0.107
ATCAGTGA | -0.19
AAAATGCT | -0.0135
CGATGTCC | 0.178
CCACAGGG | -0.23
CTGGCGAA | -0.256
AAGTCGAG | -0.366
AGAAGGTA | -0.141
AGTTGAGC | -0.102
GACTCCCC | 0.00038
GCGGCGTA | -0.0358
AACCCCAC | -0.0399
AACCCCAT | 0.0926
CAAGCACG | -0.108
AACCTTGT | -0.237
CAGGGGTA | -0.143
CGCTAGCG | 0.0809
ACCGTCAT | -0.0409
ACCACTAG | -0.266
CCTCGACG | -0.0338
CGGCCCAG | 0.18

Sequence | PBM E-score
TCTTCCCA | -0.148
GCGACAGC | 0.0009
AAGATGCT | 0.0731
AAGAATGA | -0.171
CCCGTCCG | 0.177
ACTCCAGC | -0.253
CCAATCCA | -0.0425
ATTAATTA | -0.198
AGGAGTGA | -0.213
AAACTACC | 0.0588
CGTTTCGA | -0.229
ACGTGGCC | -0.279
CAACCCGA | 0.33
ACATGGCA | -0.17
ACATTGTG | -0.137
AAACACGG | 0.199
ACGCGAAG | -0.0329
AGAGGGGG | -0.275
AGAATTTG | -0.096
GTGTCAAC | -0.146
AAAGCTGG | -0.129
GTAGGAAA | 0.00617
ATATATAC | 0.0281
AGCTCCCG | 0.27
CATTCAAA | 0.048

Sequence | PBM E-score
GCTCCGTA | 0.168
ATGCAACA | -0.372
CACAGTCG | -0.128
TATATCCA | 0.0679
AACCAGGG | -0.267
AATTGTCT | -0.0626
AGGGTTGG | -0.151
CAATTTTA | -0.0862
TACCGATA | 0.285
AACCCAGC | -0.0399
GCGGACAC | 0.0472
GCCTATAA | -0.146
GCCTCAGA | -0.0503
CGAACTCC | 0.157
CAACCCCG | 0.0831
AACAATAC | -0.134
ATTACAAA | 0.0185
TCACCACA | -0.122
CAGGTATC | -0.0803
CATTTTTC | 0.0291
CTTCGCAC | -0.165
TGGAACAA | -0.2
AATGCGCA | 0.0503
AGTTACGG | 0.0644
GTCTCATA | -0.0549

Sequence | PBM E-score
CAGACAGC | -0.0579
GTGCGTAA | -0.201
ACAAGAGC | -0.159
ATGTATTG | -0.0359
AATTCCTG | -0.0872
AAATCGAG | -0.0486
ACCAGGGG | -0.272
GGTTTGTA | 0.0503
ACTAATAC | 0.0783
CCATGTAC | -0.0703
CGGCCTTC | 0.209
CGCTGCAC | -0.106
GCCGTAAC | -0.00304
CTGTTAAA | -0.172
CAAGCCAC | -0.315
AGACCCTA | -0.136
AAATACGC | 0.126
AAGTCTTC | -0.108
ATTCAGCG | -0.00866
GACCCACA | -0.0227
AGATGTTC | -0.018
ACAATTCG | 0.0597
CGGCACAA | 0.285
AAATCCGC | 0.111
ATACGAAA | 0.0378

Sequence | PBM E-score
CCGCCCGA | 0.324
GCCCACAA | -0.0391
ACGGCACC | 0.0635
CATTCCTA | -0.17
ACTCCTTA | -0.0987
TCGAATCA | -0.227
AAGTATAA | 0.0561
TCATTCCA | -0.0393
GTGCCGCA | 0.0972
CAATGGCG | 0.159
TCGAGGCA | -0.187
AGCTCGAA | 0.142
CAGCCGGA | 0.365
AATACTGC | 0.0891
ACGCCGCA | -0.00168
TCCCTCCA | -0.18
CAGCGGTA | -0.00538
CATAGAAG | -0.184
AGCCTAGA | -0.239
CGTAGGGC | -0.195
AATTGACA | -0.0145
AAAAGCGC | -0.211
GAAATGGC | -0.0544
ACCTAAGT | 0.00755
AACTAACC | 0.201

Sequence | PBM E-score
ATTGTCAA | 0.00767
CGAGAGCC | 0.0795
CAGTTACC | -0.0377
ACGGGACT | 0.185
GATAAATC | 0.216
GCAACTTA | 0.057
CCCTCGAA | -0.21
CATAGCCG | 0.351
GTGCTAAA | -0.0409
ACCACTAC | -0.0952
TCGGAAAA | 0.451
AATGACCA | 0.0489
CGTGCACA | -0.193
AGTTCGAC | -0.124
ATGCATTC | -0.0941
GCTCCGCA | 0.00455
AGCCAACG | -0.309
CAGAACAA | -0.148
CCTCGAGC | -0.0253
AGCGAACT | -0.24
GACATATC | -0.00643
CCAGGGCA | -0.21
CCCAGGAG | -0.248
ATAAGGTC | 0.0235
AGTACTTA | -0.163

Sequence | PBM E-score
ACGGGATA | 0.275
GACCGTCA | -0.226
GCATGACC | -0.0795
AGTACCTA | -0.0845
TATGAATA | 0.062
GTAAACAC | 0.124
AGTTAACA | 0.091
CACTTTCA | -0.144
ATAGGGCA | -0.00036
CCATACCG | 0.14
AACAGCAT | -0.0946
GGAGGTAC | 0.112
ATGCCACA | -0.111
CCCCATTC | -0.0542
CGAGTTCC | 0.163
TAATCATA | -0.0464
GAAACTGC | -0.00876
GACGCCGA | 0.192
GCCGGGAC | 0.28
CCACCAGC | -0.076
AGGAGCGG | -0.117
AAGGCCAC | -0.22
CGATACAA | 0.0288
AGAGAGCA | -0.0987
ACCAATAC | 0.00731

Sequence | PBM E-score
TTAACAAA | 0.0461
GCGTCGCA | -0.126
CACAAATA | 0.0215
CCGCGCGG | 0.329
CGGGTCCA | 0.159
AGGGTGCG | 0.0278
ACAATACA | -0.0973
CGAATTAC | 0.192
GCCCGCTA | -0.125
TGATGACA | -0.104
TCCCGCGA | 0.228
CGCCGTAG | 0.0523
CAAAACTC | 0.0551
GGCGAACC | -0.0255
ACTTATGC | -0.0458
GAGATATC | 0.112
ATGTTAAG | 0.0118
GGTCTGGA | -0.195
ACGAGCTA | -0.221
GAAATCCC | 0.122
CCTAAAAC | -0.135
CTTCCACA | -0.121
ATCGCCAC | -0.0822
AGGATTAC | -0.1
TACTCATA | -0.0182

Sequence | PBM E-score
CAGGCGCC | -0.153
GCCATAAC | -0.211
AAGCGCAC | -0.116
CTTGATAC | -0.359
GGACACCA | 0.0599
GAGCACTC | 0.09
AACATCTC | 0.0737
GTAACCTA | 0.0635
GCTCCAAC | -0.111
ACGATCAG | -0.289
TGAAAGCA | -0.224
CTGAGCCA | -0.185
AACGAAAC | -0.161
GGGCCCTA | -0.0534
GGCGTCAC | -0.0997
AAACTTTG | 0.035
AACGAGTT | -0.0507
CAACTAAA | -0.168
ATGTATGA | -0.285
GCACTCTA | -0.0977
CCCATTGA | -0.17
GCCATCAC | -0.164
CGAGGCTA | -0.00757
CAAGTAAC | -0.285
CCCAGAAG | -0.133

Sequence | PBM E-score
CAACCAGA | -0.0416
AGCCTTGG | -0.304
AACTAGTA | -0.168
AGAATACT | -0.0801
AAGTGTCC | 0.0675
ACATAGGG | -0.188
GCTTTACA | -0.116
GATAAACA | -0.0275
CGGATCAG | 0.33
CAACATCG | -0.0467
ACGGGTAT | 0.373
GGCAACTA | -0.0479
GCAAACAA | -0.107
AGTCAAAC | -0.0117
GGCGTCCA | -0.0146
CAACGTTG | -0.203
AATTCGGA | 0.447
CTCGTTAA | -0.0155
ACGTTTAA | -0.24
ATCTTTGC | -0.0773
ATCTGGAA | -0.0521
CAAGGGGG | -0.306
CCGTACAC | 0.0242
AAGTGTGA | -0.128
GCCACGCA | 0.0425

Sequence | PBM E-score
CGTCCTAC | 0.0518
TCCTTACA | 0.0268
ATAGTAAT | 0.0187
AGACCAGG | -0.0986
AGTTACAA | 0.0669
AACTAGAT | 0.0474
GACGGCGC | 0.0126
AGCGCAAA | -0.0911
GAACATCC | 0.305
CCCATACC | 0.105
ACGAAGCC | 0.0612
GACCACGA | -0.259
ATGACGTG | -0.174
CACGCGTA | -0.13
CTGTACCA | -0.188
AATGCTGC | -0.188
ACACTAAG | -0.375
TCTATGCA | -0.29
GGAAAAAC | 0.22
GTGCTAGA | -0.254
GCAGTGAC | -0.118
GGCATTCA | 0.0135
AGGAATAT | 0.144
ATTAGGCA | -0.144
CGAGACGA | 0.132

Sequence | PBM E-score
GGCGCCCC | -0.0201
AAACCGGC | 0.26
GCTTGCAC | -0.107
CCTATCAC | -0.223
CTGTCTCC | 0.0443
ACGCTCCT | -0.27
TACAGGTA | -0.151
AAATCACT | -0.176
AGCGCATC | -0.0401
TGCTGAAA | -0.154
ATGCCATG | -0.0915
CATCGCGG | 0.0818
GGACAGCC | 0.132
GGCCGACA | 0.209
CGCAGCCC | -0.00709
GCGCTAGC | -0.199
AACCCTCA | -0.148
CGGCTTCC | 0.29
AGCGGCCG | 0.158
ATCAATCA | -0.109
CGGCTGAA | 0.253
CACATTGG | -0.111
GCAAGACC | -0.0268
CCTTCGGC | 0.335
TAGGTTGA | -0.012

Sequence | PBM E-score
ATCTGGAG | -0.138
CCGTGTGC | 0.151
GGGAGAAA | 0.115
GTGTATTA | -0.0717
CAGGTTGC | -0.0961
CCGGCTAG | 0.317
GGCCACCC | 0.0792
AGTGCACT | 0.0616
AGGCTGCA | -0.147
ACTGAACT | -0.124
GACCTATA | 0.103
AGAGACGG | -0.0612
AGGTGTGA | 0.0116
ATAGCAAC | -0.0565
AAGAGGGA | -0.281
CGACGCAA | 0.135
TCGCCGCA | -0.0352
ACTAGTGG | -0.151
AGTCTGTC | -0.215
